{
  "source": "PubChem BioAssay AID1347073",
  "about": "(National Center for Advancing Translational Sciences (NCATS), 2019)",
  "note": "Screen size: about 45,000 compounds; about 200 (0.44%) were called active. Not shown: some 7% with an inconclusive outcome. Calls follow the shape of the dose curve; as a rule, active = well fitted activation curve with a large enough effect; inconclusive = small, poorly fitted or top-dose-only effect; inactive = no such curve, though single readings can be large or run the other way. This is one part of the list.",
  "data": [
    {"assay": "qHTS of TDP-43 Inhibitors: NCGC Sytravon Library Screen; also: 0% is about no effect; nearly all actives have a fitted effect of over 55% in size", "conditions": "yeast TDP-43 toxicity rescue, BacTiter-Glo growth, 24 h; series mostly up to 46.1 µM; growth rescue (activation): at the top concentration", "outline": "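TDP-43-expressing yeast, pregrown in raffinose, seeded at OD600 0.02 in galactose medium with compound for 24 hr at 30 deg C. Growth read by BacTiter-Glo luminescence, so rescue of toxicity appears as activation.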", "values": [
      {"smiles": "Cc1cc(NC(=O)CCC(=O)N(CC(=O)NC2CCCC2)c2cccc(F)c2)no1", "growth rescue (activation)": "inactive: 17.5%"},
      {"smiles": "Cc1c(CNC2CCCC(C)C2C)c(C(=O)O)c(C)n1Cc1ccccc1", "note": "(stereo not drawn)", "growth rescue (activation)": "inactive: -0.161%"},
      {"smiles": "Cc1ccc(C)c(N(C(=O)c2csnn2)C(C(=O)NC2CCCC2)c2cccnc2)c1", "note": "(stereo not drawn)", "growth rescue (activation)": "inactive: -10.6%"},
      {"smiles": "CCCC(=O)N=C1SC2CS(=O)(=O)CC2N1c1ccc(-c2nc3ccc(C)cc3s2)cc1", "note": "(stereo not drawn)", "growth rescue (activation)": "inactive: 15.2%"},
      {"smiles": "O=C(COc1ccc(S(=O)(=O)N2CCOCC2)cc1)NC1CC1", "growth rescue (activation)": "inactive: -25.5%"},
      {"smiles": "CCOC(=O)C1(Cc2ccc(OC)cc2)CCN(C(=O)CCc2cccnc2)CC1", "growth rescue (activation)": "inactive: 13.1%"},
      {"smiles": "CCOC(=O)c1cccc(OC(=O)CCNC(=O)c2ccc(Cl)cc2)c1", "growth rescue (activation)": "inactive: 17.7%"},
      {"smiles": "COc1ccc(C2=NN(C(=O)c3cccs3)C(O)(C(F)(F)F)C2)cc1", "note": "(stereo not drawn)", "growth rescue (activation)": "inactive: 15.8%"},
      {"smiles": "Cc1cccc(NC(=O)CN2C(=O)CNC2=O)c1", "growth rescue (activation)": "inactive: 17.5%"},
      {"smiles": "COc1ccc(C(=O)C2CCCN(C(=O)c3noc4c3CCCC4)C2)cc1F", "note": "(stereo not drawn)", "growth rescue (activation)": "inactive: 3.09%"},
      {"smiles": "Cc1ccc(S(=O)(=O)N2CCN(CC(=O)N/N=C\\C(Cl)=C\\c3ccccc3)CC2)cc1", "growth rescue (activation)": "inactive: 2.92%"},
      {"smiles": "CSC1=N/C(=C\\C=C\\c2cccs2)C(=O)S1", "growth rescue (activation)": "inactive: -93.4%"},
      {"smiles": "O=C(OCc1c(F)cccc1Cl)c1cnc2ccccc2n1", "growth rescue (activation)": "inactive: -9.99%"},
      {"smiles": "CCn1cc(CN2CCCC(C(=O)c3ccc(-c4ccccc4)c(F)c3)C2)cn1", "note": "(stereo not drawn)", "growth rescue (activation)": "inactive: 26.2%"},
      {"smiles": "CN(C)CCNC(=O)c1ccc2nc([C@@H]3O[C@H](CO)[C@H](O)[C@H](O)[C@H]3O)[nH]c2c1", "growth rescue (activation)": "inactive: 0.714%"},
      {"smiles": "C=CCNC(=O)C1CCN(S(=O)(=O)c2ccc(Br)cc2)CC1", "growth rescue (activation)": "inactive: -6.46%"},
      {"smiles": "Cc1nn(C(=O)c2nn(C)cc2Cl)c(C)c1Br", "growth rescue (activation)": "inactive: -5.5%"},
      {"smiles": "COc1ccccc1C(=O)Nc1nc2ccccc2[nH]1", "growth rescue (activation)": "inactive: -87.3%"},
      {"smiles": "CC1(C(=O)NS(=O)(=O)C2CC2)CCN(C(=O)COc2ccc(Cl)cc2Cl)C1", "note": "(stereo not drawn)", "growth rescue (activation)": "inactive: 3.13%"},
      {"smiles": "C[C@H](NC(=O)c1cc2cc(Cl)ccc2n1C)C(=O)N1CCC(C(=O)O)CC1", "growth rescue (activation)": "inactive: -4.39%"},
      {"smiles": "COc1ccc(NC(=O)c2ccc(S(=O)(=O)N(C)C)cc2)cc1", "growth rescue (activation)": "inactive: 13.3%"},
      {"smiles": "Cc1cccc(N(C(=O)c2csnn2)C(C(=O)NCc2ccccc2)c2ccncc2)c1", "note": "(stereo not drawn)", "growth rescue (activation)": "inactive: -19.8%"},
      {"smiles": "CC1CCCN(S(=O)(=O)c2ccc(NC(=O)CNC3CCCC3)cc2)C1", "note": "(stereo not drawn)", "growth rescue (activation)": "inactive: -12.8%"},
      {"smiles": "COc1ccc(CCC(=O)Nc2nccs2)cc1OC", "growth rescue (activation)": "inactive: -12%"},
      {"smiles": "Cc1ccccc1NC(=O)c1cccc(N2C(=O)C3CCC(C)CC3C2=O)c1", "note": "(stereo not drawn)", "growth rescue (activation)": "inactive: 13.6%"},
      {"smiles": "COc1ccc(CNC(=O)C/C(C)=N/NC(=O)c2ccccc2OC)cc1", "growth rescue (activation)": "inactive: 7.68%"},
      {"smiles": "Cc1ccc(/C=C2/C(=O)N(c3ccccc3)C(=S)N2C)o1", "growth rescue (activation)": "inactive: -3.68%"},
      {"smiles": "CCOC(=O)/C(C#N)=C/c1c(N2CCN(C)CC2)nc2ccccn2c1=O", "growth rescue (activation)": "inactive: 3.65%"},
      {"smiles": "COc1cc(C(=O)NC2CC(C)(C)Cc3c2cnn3-c2ccccc2)cc(OC)c1OC", "note": "(stereo not drawn)", "growth rescue (activation)": "inactive: -12.9%"},
      {"smiles": "CCOC(=O)Cc1csc(SCC(=O)NC2CCCC2)n1", "growth rescue (activation)": "inactive: 12.9%"},
      {"smiles": "COc1ccc(N(CC(=O)NCc2ccc(C)cc2)S(=O)(=O)c2ccccc2[N+](=O)[O-])c(OC)c1", "growth rescue (activation)": "inactive: 6.27%"},
      {"smiles": "Nc1nnc(CC(=O)NCc2ccccc2)s1", "growth rescue (activation)": "inactive: -5.46%"},
      {"smiles": "COc1cc(F)ccc1-c1cc(C(=O)Nc2ccc(C)c(NS(C)(=O)=O)c2)[nH]n1", "growth rescue (activation)": "inactive: -4.85%"},
      {"smiles": "O=c1c(C(c2ccc(Br)cc2)c2c(O)nc3n(c2=O)CCS3)c(O)nc2n1CCS2", "growth rescue (activation)": "inactive: 4.52%"},
      {"smiles": "CC(C)c1nnc(SCC(=O)NC2CCCC2)n1C", "growth rescue (activation)": "inactive: 5.56%"},
      {"smiles": "Cc1sc2nc(CN3CCCC3)nc(N3CCN(C(=O)c4ccco4)CC3)c2c1C", "growth rescue (activation)": "inactive: 15.4%"},
      {"smiles": "OCCN1CCN(CC#CCn2c3ccccc3c3ccccc32)CC1", "growth rescue (activation)": "inactive: -27.4%"},
      {"smiles": "O=C1COc2ccc(S(=O)(=O)NCCc3ccccc3)cc2N1", "growth rescue (activation)": "inactive: 3.8%"},
      {"smiles": "COc1ccc(NC(=S)Nc2ccccc2C(F)(F)F)cc1", "growth rescue (activation)": "inactive: 14.3%"},
      {"smiles": "Cc1ccc(-n2cccn2)c(CN2CCCC(CNC(=O)c3ccc(F)cc3)C2)c1", "note": "(stereo not drawn)", "growth rescue (activation)": "inactive: 17.4%"},
      {"smiles": "COCCNC(=O)CN1CCC(NC(=O)c2ccco2)CC1", "growth rescue (activation)": "inactive: 2.64%"},
      {"smiles": "Cc1cccc(CC(C)NC(=O)CCc2nnc(CCCCc3ccccc3)o2)n1", "note": "(stereo not drawn)", "growth rescue (activation)": "inactive: 7.79%"},
      {"smiles": "C/C(N)=C(/C#N)C(=O)CSc1cc(C)c2ccccc2n1", "growth rescue (activation)": "inactive: 12.3%"},
      {"smiles": "CC1CCC(=NNC(=O)Cc2cccn2C)CC1", "note": "(stereo not drawn)", "growth rescue (activation)": "inactive: 11.5%"},
      {"smiles": "CC1CCc2c(sc(NC(=O)c3ccco3)c2C(=O)O)C1", "note": "(stereo not drawn)", "growth rescue (activation)": "inactive: -92.9%"},
      {"smiles": "CCOc1ccc(NC(=O)C2CCCN(c3nnc(-n4c(C)ccc4C)s3)C2)cc1", "note": "(stereo not drawn)", "growth rescue (activation)": "inactive: 4.59%"},
      {"smiles": "COCCn1cnnc1SCC(=O)Nc1cccc(S(=O)(=O)N(C)c2ccccc2)c1", "growth rescue (activation)": "inactive: 7.79%"},
      {"smiles": "Nc1nnc(CCCCCc2nnc(N)s2)s1", "growth rescue (activation)": "inactive: -13.7%"},
      {"smiles": "COC(=O)c1sccc1NC(=O)Nc1cc(C)ccc1C", "growth rescue (activation)": "inactive: 9.21%"},
      {"smiles": "C=CCN=C1NN=C(c2ccc3c(c2)OCCO3)CS1", "growth rescue (activation)": "inactive: 7.06%"},
      {"smiles": "CC1CN(S(=O)(=O)c2cc(C(=O)NC(C)c3cccnc3)ccc2Cl)CC(C)O1", "note": "(stereo not drawn)", "growth rescue (activation)": "inactive: 12.1%"},
      {"smiles": "OC(c1ccc(F)c(F)c1)c1nc(-c2ccncc2)cs1", "note": "(stereo not drawn)", "growth rescue (activation)": "inactive: 11%"},
      {"smiles": "COC(=O)Cc1csc(Nc2ccc(Cl)cc2)n1", "growth rescue (activation)": "inactive: -11.9%"},
      {"smiles": "COc1cccc(N(CC(=O)NCCSCc2ccco2)S(=O)(=O)c2ccccc2)c1", "growth rescue (activation)": "inactive: -18%"},
      {"smiles": "COc1ccc(C(=O)NC(=S)Nc2nc(C)cc(C)n2)cc1Br", "growth rescue (activation)": "inactive: 6.48%"},
      {"smiles": "COc1ccc(NC(=O)C2CC(c3ccc(Cl)cc3)=NO2)cc1", "note": "(stereo not drawn)", "growth rescue (activation)": "inactive: -3.83%"},
      {"smiles": "O=C(CCc1nnc(CCCCc2ccccc2)o1)NCCN1CCCCC1=O", "growth rescue (activation)": "inactive: 8.95%"},
      {"smiles": "Cc1cccn2c(=O)c(/C=C(\\C#N)C(=O)NC3CCS(=O)(=O)C3)c(Oc3ccc(F)cc3)nc12", "note": "(stereo not drawn)", "growth rescue (activation)": "inactive: -0.677%"},
      {"smiles": "COc1cc(NC(=O)CN2CCN(c3ccccc3)CC2)c(C)cc1[N+](=O)[O-]", "growth rescue (activation)": "inactive: 17.1%"},
      {"smiles": "CC(C)CCn1nc(C(=O)Nc2nc3c(s2)CCCC3)c2ccccc2c1=O", "growth rescue (activation)": "inactive: -5.75%"},
      {"smiles": "Cc1cccc(C)c1OCc1cc(C(=O)N2CCN(C3CCCC3)CC2)no1", "growth rescue (activation)": "inactive: 10.9%"},
      {"smiles": "O=S(=O)(Nc1cc(S(=O)(=O)N2CCOCC2)ccc1N1CCCC1)c1cccs1", "growth rescue (activation)": "inactive: 8.46%"},
      {"smiles": "Nc1nc(Nc2cccc(Cl)c2)nc(NCCO)c1[N+](=O)[O-]", "growth rescue (activation)": "inactive: -10.9%"},
      {"smiles": "COc1ccc(C2=NN(C(=O)CSc3nnc(-c4ccccc4F)o3)C(c3ccco3)C2)cc1", "note": "(stereo not drawn)", "growth rescue (activation)": "inactive: 17.8%"},
      {"smiles": "CN(C)c1nc(Nn2cnnc2)nc(N(C)C)n1", "growth rescue (activation)": "inactive: 27.7%"},
      {"smiles": "O=C(NCC(=O)N(c1cccnc1)C(C(=O)NC1CCCC1)c1cccs1)c1ccco1", "note": "(stereo not drawn)", "growth rescue (activation)": "inactive: 5.04%"},
      {"smiles": "CCc1nc2ccc(C(=O)NCCOc3ccc(OC)cc3)cn2c1N(C)C(=O)C1CCCCC1", "growth rescue (activation)": "inactive: 10.7%"},
      {"smiles": "CC(=O)c1ccc(N(CC(=O)NCc2ccc3c(c2)OCO3)C(=O)c2csnn2)cc1", "growth rescue (activation)": "inactive: -13.3%"}
    ]}
  ]
}
